Results taken from PubChem BioAssay AID1963576 (National Center for Advancing Translational Sciences (NCATS), 2024).
The whole screen tested about 46,000 compounds, of which about 60 (0.1%) were called active. Inconclusive results (about 3%) are left out. Calls follow the shape of the dose curve; as a rule, active = well fitted inhibition curve with a large enough effect; inconclusive = small, poorly fitted or top-dose-only effect; inactive = no such curve, though single readings can be large or run the other way. Some of the results follow.

assay: Primary qHTS assay for Inhibitors of ovarian cancer metastasis using an organotypic tumor microenvironment (TME) model.; also: nearly all actives have a fitted effect of over 65% in size;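 as to Potency: count of GFP cancer cells still attached after washing and fixation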;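 as to activity change, negative = inhibition: plate controls were DMSO wells for no effect and tomatine positive control wells for full effect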; conditions: SKOV3ip1-GFP adhesion/invasion on 3D omental model, fluorescence; series mostly up to 45.8 µM; activity change, negative = inhibition: at the top concentration
Summary of the method: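 qHTS, 4-pt dose (0.36-46 umol/L); SKOV3ip1-GFP, 1,200 cells/well, no FBS; primary omental fibroblast/mesothelial co-culture 48 h pre-grown; 2 h RT + 16 h 37 C; PBS wash, 4% PFA; GFP count 488/509 nm.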
Potency is read from the fitted curve at half-maximal effect.

Structure (SMILES) | outcome | activity change, negative = inhibition | Potency
CCn1c(=O)c2sccc2n2c(CCC(=O)N3CCN(c4ccccc4OC)CC3)nnc12 | inactive | – | –
C1Cc2[nH]nc(-c3nn[nH]n3)c2C1 | – | inactive: -6.88% | –
Cc1cccc(OCCCSc2nc(-c3ccc(C(C)(C)C)cc3)nc3cc(=O)[nH]n23)c1C | inactive | – | –
CC(NC(=O)c1ccc(CSc2nc3ccncc3n2Cc2ccc(F)cc2)cc1)c1ccccc1 (stereo not drawn) | – | inactive: -8.49% | –
O=S(=O)(c1ccccc1)c1nc(-c2cccs2)oc1N1CCCCC1 | inactive | – | –
COCCNC(=O)c1ccc2c(c1)N(Cc1ccc(C(F)(F)F)cc1)C(=O)c1ccccc1S2 | inactive | – | –
CCCCCn1c(=O)[nH]c2cc(C(=O)NCc3ccc(F)cc3)ccc2c1=O | – | inactive: 9.85% | –
Cc1cccc(-n2c(=O)c3c(c4cc(C)ccc4n3C)n(CC(=O)Nc3ccccc3Cl)c2=O)c1 | – | inactive: -9.95% | –
O=C(O)[C@H](CC(=O)N1C[C@@H]2CCCC[C@H]2C1)Cc1ccccc1 | – | inactive: 9.32% | –
CC1CCN(S(=O)(=O)c2ccc3c(ccn3CC(=O)NCc3ccc(N(C)C)cc3)c2)CC1 | inactive | – | –
CC(C)c1ccc(S(=O)(=O)c2nnn3c2nc(N2CCOCC2)c2sccc23)cc1 | inactive | – | –
Cc1ccccc1OCC(=O)Nc1c(C)ccc2nsnc12 | – | inactive: -0.238% | –
COc1ccc(NS(=O)(=O)c2ccc3c(c2)CCCN3C(=O)C2CCC2)cc1OC | – | inactive: -7.92% | –
CCOC(=O)N1CCc2c(sc3c2c(=O)n(-c2ccc(CC)cc2)c(=O)n3CC(=O)c2ccccc2)C1 | – | inactive: -4.55% | –
Cc1ccc(NC(=O)C2CCN(C(=O)c3cnn(-c4ccccc4)c3-n3cccc3)CC2)cc1 | – | inactive: 105% | –
Cc1c(C(=O)Nc2ccccc2Br)oc2ccc(S(=O)(=O)N3CCOCC3)cc12 | – | inactive: -0.442% | –
CCCCc1nn2c(=O)cc(COC(=O)C(C)Oc3ccccc3)nc2s1 (stereo not drawn) | inactive | – | –
COc1nc(N)nc2c1ncn2[C@@H]1O[C@H](CO)[C@@H](O)[C@@H]1O | – | inactive: -10.1% | –
CCC1CN(C(=O)N2CCC(C(=O)N3CCN(c4ccc(F)cc4)CC3)CC2)c2ccccc2O1 (stereo not drawn) | – | inactive: -4.87% | –
COc1ccc(Cl)cc1NC(=O)Cn1nc(C(F)(F)F)c2c1CCC2 | inactive | – | –
COc1ccc(CCC(=O)NCc2nc3cccnc3n2Cc2cccc(OC)c2)cc1 | – | inactive: -1.6% | –
COc1ccccc1CNC(=O)C1CCN(Cc2cc3ccccc3n2Cc2cccc(C)c2)CC1 | – | inactive: -19.9% | –
O=C(NCc1ccccc1Cl)c1ccc(NC(=O)c2nsc3ccccc23)cc1 | – | inactive: 1.06% | –
Cc1ccccc1Cn1c(=O)n(CCCCC(=O)NCc2ccccc2Cl)c(=O)c2ccccc21 | – | inactive: -14.8% | –

Structure (SMILES) | outcome | activity change, negative = inhibition | Potency
CC(C)CNC(=O)c1c(-c2ccccc2)c(-c2ccccc2)nn(C)c1=O | – | inactive: -18.9% | –
COc1ccc2c(c1)CC(NC(=O)Nc1ccc(NC(C)=O)cc1)CO2 (stereo not drawn) | – | inactive: -4.55% | –
COc1ccc2c(Oc3ccc(NC(=O)c4c(C)n(CC(C)(C)O)n(-c5ccccc5)c4=O)cc3F)ccnc2c1 | – | inactive: 10.5% | –
CCOc1ccc2nc(N3CCC(C(=O)Nc4ccc(Br)cc4F)CC3)sc2c1 | – | inactive: 19.4% | –
CCOc1cc(C)c(C(C)C)cc1S(=O)(=O)n1ccnc1CC | – | inactive: 2.51% | –
CCOc1ccc(NC(=O)C2CCN(S(=O)(=O)c3ccc4c(c3)oc(=O)n4C)CC2)cc1 | – | inactive: 8.62% | –
O=C(CSc1nnc(-c2ccncc2)n1-c1ccccc1)Nc1ccc(Br)cc1 | inactive | – | –
CCSc1ncc(Cl)c(C(=O)N(Cc2ccc(C(C)(C)C)cc2)C2CCS(=O)(=O)C2)n1 (stereo not drawn) | inactive | – | –
COc1ccc2c(c1)c1c(c(=O)n(Cc3ccccc3)c(=O)n1Cc1ccccc1)n2C | inactive | – | –
CC(=O)N1CCOc2cc(S(=O)(=O)Nc3cc(C(F)(F)F)ccc3Cl)c(C)cc21 | – | inactive: 3.51% | –
CCCNC(=O)c1c(NC(=O)c2ccc(C)cc2)sc2c1CCCCC2 | – | inactive: -1.18% | –
Cc1ccc(-c2noc(-c3nnn(CC(=O)Nc4cccc(C(F)(F)F)c4)c3N)n2)cc1 | – | inactive: -27.9% | –
CCOC(=O)c1cccc(NC(=O)Nc2ccc3c(c2)N(C)C(=O)c2ccccc2S3)c1 | – | inactive: 9.1% | –
CCOC(=O)c1c(C)oc2nc(C)nc(NCCCN3CCN(c4cc(Cl)ccc4C)CC3)c12 | – | inactive: 11.5% | –
Cc1ccc(C(=O)NCC(=O)OCc2cc(=O)n3nc(C4CC4)sc3n2)cc1 | inactive | – | –
O=C(NCCCN1CCN(c2ccccc2F)CC1)C1COc2ccccc2C1 (stereo not drawn) | – | inactive: 6.3% | –
O=C(Nc1cccc(-c2nc3ccccc3[nH]2)c1)c1c(F)cccc1F | – | inactive: -3.37% | –
COc1ccc(S(=O)(=O)Cc2ccc(C(=O)N3CCN(c4cc(C)ccc4C)CC3)o2)cc1 | – | inactive: 15.7% | –
O=C(O)c1cccnc1SCc1cccc(Cl)c1 | – | inactive: -0.323% | –
CCOc1ccc(S(=O)(=O)Nc2ccc(OC)c(Cl)c2)c2cccnc12 | inactive | – | –
O=S(=O)(Nc1cccc(-c2ccc(N3CCCC3)nn2)c1)c1cc(F)ccc1F | – | inactive: 2.35% | –
Cc1cccc(OCCSc2nc3ccccc3n2CC(=O)N2CCOCC2)c1C | – | inactive: 7.32% | –
CCN1C(=O)c2ccccc2S(=O)c2ccc(C(=O)NCc3ccccc3OC)cc21 (stereo not drawn) | inactive | – | –
CCOC(=O)N1CCN(Cc2nc3cc(NC(=O)c4ccc([N+](=O)[O-])cc4)ccc3n2C(C)C)CC1 | – | inactive: -5.58% | –

Structure (SMILES) | outcome | activity change, negative = inhibition | Potency
CC[C@@H]([C@H](C)O)n1ncn(-c2ccc(N3CCN(c4ccc(OCC5CO[C@@](Cn6cncn6)(c6ccc(F)cc6F)C5)cc4)CC3)cc2)c1=O (stereo partly drawn) | – | inactive: 3.73% | –
CCOc1ccc(C2C(C(N)=O)=C(C)Nc3nc(-c4cccc(Cl)c4)nn32)cc1OC (stereo not drawn) | – | inactive: -2.3% | –
Cc1ccc(NC(=O)C2CCCN(S(=O)(=O)c3c(C)nn(C)c3C)C2)c(C)c1 (stereo not drawn) | – | inactive: -3.95% | –
COc1cc(/C=C/c2nc3cc(Cl)ccc3c(=O)n2-c2ccc(C)cc2C)cc(OC)c1OC | – | inactive: -1.4% | –
CSc1ccc(NC(=O)Cn2nnnc2-c2ccccc2F)cc1 | – | inactive: -8.04% | –
COc1cccc(CNC(=O)Cn2c(SCC(=O)Nc3ccc(C)c(C)c3)nc3ccccc32)c1 | – | inactive: -8.04% | –
CCCCCOc1ccc(NC(=O)Cn2c(-c3cncs3)nc3ccccc32)cc1 | – | inactive: -69.4% | –
O=C(O)c1c2c(nc3ccc(S(=O)(=O)N4CCC(C(=O)NCc5ccc(Cl)cc5)CC4)cc13)CCCC2 | inactive | – | –
CCOC(=O)c1c(C)oc2nc(C)nc(N3CCN(c4cccc(C)c4C)CC3)c12 | – | inactive: 4.06% | –
Cc1cc(Nc2cccc(C(F)(F)F)c2)nc2ccc(NC(=O)c3cccnc3)cc12 | – | – | active: 11.2 µM
CCOC(=O)c1c(C)n(S(=O)(=O)c2ccc(C)cc2)c2ccc(NS(=O)(=O)c3ccc(C)cc3)cc12 | – | inactive: -1.15% | –
CC(NC(=O)c1cc(-c2ccc(Cl)cc2)on1)c1ccccc1 (stereo not drawn) | – | inactive: -2.56% | –
CCc1cccc(NC(=O)c2cccc3c2C(=O)N(C2CCCCC2)C3)c1 | – | inactive: 23.1% | –
O=C(NCC(c1cccnc1)N1CCc2ccccc21)C(=O)Nc1ccccc1F (stereo not drawn) | – | inactive: -5% | –
COc1nnc(-c2ccc(N3CCCCC3)c(NC(=O)c3ccccc3)c2)c2ccccc12 | inactive | – | –
COc1ccc(Nc2ncnc3c2nc2n3CCCC2)cc1Cl | inactive | – | –
Cc1ccccc1C(=O)Nc1ccc2oc(-c3ccc(Cl)c(Cl)c3)nc2c1 | – | inactive: 32.4% | –
Cc1ccccc1Nc1nnc(-c2ccc(C)c(S(=O)(=O)N3CCCCC3)c2)c2ccccc12 | – | inactive: 40.3% | –
COc1ccc(CNC(=O)c2ccc3c(c2)N(Cc2ccccc2)CCS3)cc1 | – | inactive: 2.41% | –
CCOC(=O)c1nnn(CC(=O)NC(=O)Nc2ccc(F)cc2)c1C(=O)OCC | – | inactive: 4.5% | –
CN(C)c1ccccc1CN1CCCN(Cc2ccccc2N(C)C)C1c1ccncc1 | – | inactive: 11.8% | –
Cc1nc2nc(C(F)(F)F)[nH]n2c(=O)c1Cc1ccccc1 | – | inactive: 14.4% | –
Cc1oc2ncn(CC(C)C)c(=O)c2c1C(=O)N(Cc1ccccc1)C(C)C | – | inactive: -8.69% | –
O=C(NCC(c1ccc2c(c1)OCO2)N1CCN(c2ccccc2)CC1)c1ccccc1 (stereo not drawn) | – | inactive: 11.6% | –

Structure (SMILES) | outcome | activity change, negative = inhibition | Potency
CC1Cn2cc(C(=O)Nc3ccccc3C(F)(F)F)c(=O)c3c(Cl)ccc(c32)O1 (stereo not drawn) | inactive | – | –
CC(C)Oc1ccc(C(=O)Nc2nc3c(s2)CC(C(C)(C)C)CC3)cc1 (stereo not drawn) | – | inactive: -5.21% | –
Cc1ccc(O)c(NC(=O)CCSc2nc(-c3ccco3)cc(C(F)(F)F)n2)c1 | – | inactive: -6.83% | –
CCOc1ccccc1NC(=O)c1c(NC(=O)c2ccncc2)sc2c1CCC(C(C)(C)C)C2 (stereo not drawn) | – | inactive: 22.4% | –
COc1ccc(Cl)cc1NS(=O)(=O)c1c(C)[nH]c(=O)[nH]c1=O | – | inactive: -0.0587% | –
O=C(CN1C(=O)C2(SCC(=O)N2c2ccc(Cl)cc2)c2ccccc21)NCCc1ccccc1 (stereo not drawn) | – | inactive: 22.8% | –
Cc1ccc(Cn2c(C)c3cnn(CC(=O)N4CCN(c5ccc(F)cc5)CC4)c(=O)c3c2C)cc1 | inactive | – | –
O=c1c2ccccc2nc2n1CCc1c-2[nH]c2ccccc12 | – | inactive: -1.3% | –
O=C(/C=C/c1ccccc1)N1CCN(Cc2cc(=O)n3nc(-c4ccccc4Cl)sc3n2)CC1 | – | inactive: 4.46% | –
COc1cc(OC)c(NC(=O)c2cn(C)c(=O)c3cc(OC)c(OC)cc23)cc1Cl | – | inactive: -1.18% | –
Cc1ccc(C(=O)c2oc3ccccc3c2NC(=O)COc2ccc(C(C)(C)C)cc2)cc1 | inactive | – | –
Cc1ccc(COc2cccc3cc(-c4noc(-c5ccc(C)cc5)n4)c(=O)oc23)cc1 | – | inactive: 10.2% | –
Cc1ccc(NC(=O)Cn2cnc3c(oc4ccccc43)c2=O)cc1 | – | inactive: 21% | –
CC(C)C(=O)c1cc2c(cc1NC(=O)c1ccccc1F)OCCO2 | – | inactive: 10.8% | –
COc1ccc(C(=O)NCc2nnc(SCC(=O)Nc3ccc(F)cc3)n2-c2ccccc2)cc1 | – | inactive: 15.2% | –
COC(=O)c1ccc(NC(=O)CSc2nc3c(c(=O)n(C)c(=O)n3C)n2Cc2ccccc2)cc1 | – | inactive: 9.19% | –
Cc1ccc(S(=O)(=O)Nc2c(C)nc3nc(C)[nH]n3c2=O)c(C)c1 | – | inactive: 6.03% | –
CN(C)c1ccc(NC(=O)CSC2=Nc3ccccc3C3=NC(CC(=O)NCc4ccc5c(c4)OCO5)C(=O)N23)cc1 (stereo not drawn) | – | inactive: 4.36% | –
Oc1ccc(NCc2ccccc2OCc2ccccc2Cl)cc1 | – | inactive: -4.75% | –
COc1ccc(Cl)cc1NC(=O)c1c(NCc2cccs2)sc2c1CCCC2 | inactive | – | –
Cc1cccc(-n2ncc(C(=O)Nc3ccc4c(c3)OCO4)c2C2CCN(C(=O)OC(C)(C)C)CC2)c1 | – | inactive: 9.29% | –
